Experimental data taken from paper PMC10928841, “Ames test study designs for nitrosamine mutagenicity testing: qualitative and quantitative analysis of key assay parameters” (Mutagenesis, 2023).
Like-named read-outs stand apart in the source and are kept apart here.

Assays:
E. coli WP2uvrA (pKM101) [1] = details: plate incorporation, S9 rat, up to 5000 µg/plate
S. typhimurium TA100 = assay: Ames test, pre-incubation method, TA100; details: up to 5000 µg/plate
S. typhimurium TA1535 = assay: Ames test, pre-incubation method, TA1535; details: S9 hamster, up to 5000 µg/plate
E. coli WP2uvrA (pKM101) [2] = assay: Ames test, pre-incubation method, WP2uvrA (pKM101); details: up to 5000 µg/plate
[3] = tested on: S. typhimurium TA98, TA100, TA1535, TA1537 and E. coli WP2uvrA pKM101; assay: Ames test, pre-incubation method, overall result of five strains; details: for Ames test Result: up to 5000 µg/plate
[4] = tested on: S. typhimurium TA98, TA100, TA1535, TA1537 and E. coli WP2uvrA pKM101; assay: Ames test, plate incorporation method, overall result of five strains; details: for Ames test Result: up to 5000 µg/plate

CCN(C)N=O [NMEA, N-nitrosomethylethylamine]
Ames test strain WP2* (E. coli WP2uvrA (pKM101) [1]; vehicle methanol): + (positive for mutagenicity, if a biologically relevant increase in the mean number of revertant colonies above a threshold of 2-fold (TA98, TA100, WP2 uvrA))
Ames test strain WP2* (E. coli WP2uvrA (pKM101) [1]; vehicle water): + (positive for mutagenicity, if a biologically relevant increase in the mean number of revertant colonies above a threshold of 2-fold (TA98, TA100, WP2 uvrA))
Ames test strain TA100 (S. typhimurium TA100; S9 hamster, vehicle methanol): + (positive for mutagenicity, if a biologically relevant increase in the mean number of revertant colonies above a threshold of 2-fold (TA98, TA100, WP2 uvrA))
Ames test strain TA100 (S. typhimurium TA100; S9 hamster, vehicle water): + (positive for mutagenicity, if a biologically relevant increase in the mean number of revertant colonies above a threshold of 2-fold (TA98, TA100, WP2 uvrA))
Ames test strain TA100 (S. typhimurium TA100; S9 rat, vehicle methanol): + (positive for mutagenicity, if a biologically relevant increase in the mean number of revertant colonies above a threshold of 2-fold (TA98, TA100, WP2 uvrA))
Ames test strain TA1535 (S. typhimurium TA1535; vehicle methanol): + (positive for mutagenicity, if a biologically relevant increase in the mean number of revertant colonies above a threshold of 2-fold (TA98, TA100, WP2 uvrA) or 3-fold (TA1535, TA1537))
Ames test strain TA1535 (S. typhimurium TA1535; vehicle water): + (positive for mutagenicity, if a biologically relevant increase in the mean number of revertant colonies above a threshold of 2-fold (TA98, TA100, WP2 uvrA) or 3-fold (TA1535, TA1537))
Ames test strain WP2* (E. coli WP2uvrA (pKM101) [2]; S9 hamster, vehicle methanol): + (positive for mutagenicity, if a biologically relevant increase in the mean number of revertant colonies above a threshold of 2-fold (TA98, TA100, WP2 uvrA))
Ames test strain WP2* (E. coli WP2uvrA (pKM101) [2]; S9 hamster, vehicle water): + (positive for mutagenicity, if a biologically relevant increase in the mean number of revertant colonies above a threshold of 2-fold (TA98, TA100, WP2 uvrA))
Ames test strain WP2* (E. coli WP2uvrA (pKM101) [2]; S9 rat, vehicle DMSO): + (positive for mutagenicity, if a biologically relevant increase in the mean number of revertant colonies above a threshold of 2-fold (TA98, TA100, WP2 uvrA))
Ames test strain WP2* (E. coli WP2uvrA (pKM101) [2]; S9 rat, vehicle methanol): + (positive for mutagenicity, if a biologically relevant increase in the mean number of revertant colonies above a threshold of 2-fold (TA98, TA100, WP2 uvrA))
Ames test strain WP2* (E. coli WP2uvrA (pKM101) [2]; S9 rat, vehicle water): + (positive for mutagenicity, if a biologically relevant increase in the mean number of revertant colonies above a threshold of 2-fold (TA98, TA100, WP2 uvrA))
Ames test outcome, OECD TG-471 compliant test with appropriate combination of assay parameters ([3]; overall conclusion): positive
Ames test Result ([3]; pre-incubation, S9 hamster, vehicle methanol): Positive
Ames test Result ([3]; pre-incubation, S9 hamster, vehicle water): Positive
Ames test Result ([3]; pre-incubation, S9 rat, vehicle DMSO): Positive
Ames test Result ([3]; pre-incubation, S9 rat, vehicle methanol): Positive
Ames test Result ([3]; pre-incubation, S9 rat, vehicle water): Positive
fold-change increases in revertant colonies ([3]; pre-incubation, rat liver S9-mix, irrespective of the vehicle used (water, DMSO, methanol)): 2–4 fold
Ames test Result ([4]; S9 none, vehicle DMSO): Negative
Ames test Result ([4]; S9 none, vehicle methanol): Negative
Ames test Result ([4]; S9 none, vehicle water): Negative
Ames test Result ([4]; S9 rat, vehicle DMSO): Negative
Ames test Result ([4]; S9 rat, vehicle methanol): Positive
Ames test Result ([4]; S9 rat, vehicle water): Positive
mutagenicity in any bacterial strain ([4]; absence of S9-mix, water, methanol or DMSO as vehicle): not mutagenic
